Data from PMC9860497.
Results are given in words; binding and its absence hold for the method and conditions named. In cells and extracts the contact can be indirect. Some results given as binding are weak or reduced against the parent protein; the word gives no strength. Where a sequence is shown, tags or fusion partners need not be part of it.

T1: FLAG-tagged 14-3-3γ (mouse) (UniProt P61982)
T1 sequence: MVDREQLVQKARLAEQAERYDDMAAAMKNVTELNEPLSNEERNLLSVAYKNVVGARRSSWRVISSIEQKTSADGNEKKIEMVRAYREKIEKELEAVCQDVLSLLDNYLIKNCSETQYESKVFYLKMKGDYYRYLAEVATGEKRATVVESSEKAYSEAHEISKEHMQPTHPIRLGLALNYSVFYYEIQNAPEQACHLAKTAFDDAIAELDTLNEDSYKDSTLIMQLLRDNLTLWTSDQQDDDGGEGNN


Target: T1, FLAG-tagged 14-3-3γ (mouse)
Experiment: co-IP; preliminary Co-IP analysis, data not shown; cells treated with serum depletion or an ER stressor

binding	Binder
binds	HA-tagged TMCC3-D1 (mutant deleting almost C-terminal half from TMCC3-N) (domain or fragment, UniProt Q8R310 1-210, phosphoserine at 15 (detected by the anti-phospho-14-3-3 binding motif pAb)) MPGSDTALTVDRTYSDPGRHHRCKSRVDRHDMNTLSLPLNIRRGGSDTNLNFDVPDGILDFHKVKLNADSLRQKILKVTEQIKIEQTSRDGNVAEYLKLVSSADKQQAGRIKQVFEKKNQKSAHSIAQLQKKLEQYHRKLREIEQNGVTRSSKDISKDSLKEIHHSLKDAHVKSRTAPHCLESSKSSMPGVSLTPPVFVFNKSREFANLI

Target: T1, FLAG-tagged 14-3-3γ (mouse)
Experiment: co-IP; HEK293 cells co-transfected with HA-TMCC3 fragments and FLAG-14-3-3γ; Triton X-100 extracts (buffer A: 20 mM Tris-HCl pH7.5, 150 mM NaCl, 2 mM MgCl2, 1% Triton X-100); immunoprecipitation with mouse anti-Flag mAb, Protein G Sepharose; blot with anti-HA mAb and anti-Flag pAb

binding	Binder
binds weakly	HA-tagged TMCC3-D1-S15A (domain or fragment, UniProt Q8R310 1-210) MPGSDTALTVDRTYADPGRHHRCKSRVDRHDMNTLSLPLNIRRGGSDTNLNFDVPDGILDFHKVKLNADSLRQKILKVTEQIKIEQTSRDGNVAEYLKLVSSADKQQAGRIKQVFEKKNQKSAHSIAQLQKKLEQYHRKLREIEQNGVTRSSKDISKDSLKEIHHSLKDAHVKSRTAPHCLESSKSSMPGVSLTPPVFVFNKSREFANLI
binds	HA-tagged N-terminal fragment of TMCC3 encompassing the large cytoplasmic region (domain or fragment, UniProt Q8R310 1-411) MPGSDTALTVDRTYSDPGRHHRCKSRVDRHDMNTLSLPLNIRRGGSDTNLNFDVPDGILDFHKVKLNADSLRQKILKVTEQIKIEQTSRDGNVAEYLKLVSSADKQQAGRIKQVFEKKNQKSAHSIAQLQKKLEQYHRKLREIEQNGVTRSSKDISKDSLKEIHHSLKDAHVKSRTAPHCLESSKSSMPGVSLTPPVFVFNKSREFANLIRNKFGSADNIAHLKNSLEEFRPEASPRAYGGSATIVNKPKYGSDDECSSGTSGSADSNGNQSFGAGGTSTLDSQGKIAKIMEELREIKVTQTQLAEDIEALKVQFKREYGFISQTLQEERYRYERLEDQLHDLTELHQHETANLKQELASAEEKVAYQAYERSRDIQEALESCQTRISKLELHQQEQQTLQTDAVNAKVLL

Second part, the binder before the results:

Binder	binding
HA-tagged TMCC3-D2 (mutant deleting the first 89 amino acids from TMCC3-D1) (domain or fragment, UniProt Q8R310 90-210) DGNVAEYLKLVSSADKQQAGRIKQVFEKKNQKSAHSIAQLQKKLEQYHRKLREIEQNGVTRSSKDISKDSLKEIHHSLKDAHVKSRTAPHCLESSKSSMPGVSLTPPVFVFNKSREFANLI	no binding
HA-tagged TMCC3-D1 (mutant deleting almost C-terminal half from TMCC3-N) (domain or fragment, UniProt Q8R310 1-210, phosphoserine at 15 (detected by the anti-phospho-14-3-3 binding motif pAb)) MPGSDTALTVDRTYSDPGRHHRCKSRVDRHDMNTLSLPLNIRRGGSDTNLNFDVPDGILDFHKVKLNADSLRQKILKVTEQIKIEQTSRDGNVAEYLKLVSSADKQQAGRIKQVFEKKNQKSAHSIAQLQKKLEQYHRKLREIEQNGVTRSSKDISKDSLKEIHHSLKDAHVKSRTAPHCLESSKSSMPGVSLTPPVFVFNKSREFANLI	binds
HA-tagged TMCC3-D1-S15/25/46A (domain or fragment, UniProt Q8R310 1-210) MPGSDTALTVDRTYADPGRHHRCKARVDRHDMNTLSLPLNIRRGGADTNLNFDVPDGILDFHKVKLNADSLRQKILKVTEQIKIEQTSRDGNVAEYLKLVSSADKQQAGRIKQVFEKKNQKSAHSIAQLQKKLEQYHRKLREIEQNGVTRSSKDISKDSLKEIHHSLKDAHVKSRTAPHCLESSKSSMPGVSLTPPVFVFNKSREFANLI	binds weakly
